The source of these data is article PMC12136788.

The other results are listed elsewhere or left out.

First the molecules themselves.
B1: chr4:106720893:106720894:+_ENSMUSG00000061887_ENSMUST00000030367|mus_hu|FALSE|FALSE (ssRNA)
RNA: GGGAGUUCUACAGUCCGACGAUCCAACAAAAAAGUGUCAUGUACAGAAAAGGUCCUUUGGGGAAAGGGCAAGGGGUGGGAUUUUUCUGGUCACUGACUUGAAAUACAUUUUUGAGAGUUUUGUCCUUCUUGUUUUAUGGAAUACAACAGAGGAUUGAGCAUCA
B2: 38241307_38241427_3500_3pUTR_ENSMUSG00000022812_ENSMUST00000023507|mouse|control|control (ssRNA)
RNA: GGGAGUUCUACAGUCCGACGAUCACAGACUCUGUCGCGCUCUCUCCUUUGGCAGCAGCCUUCCUAAGCUGGCAUCUGCAACACCUGCACUGGUCAAGAGCAAAACAAACCUUAAGUAAUCCAUCUCUGAUCUUCCCUUAGAGCCAACAGAGGAUUGAGCAUCA
B3: 27959316_27959436_2906_CDS_ENSG00000141298_ENST00000269033|human|control|control (ssRNA)
RNA: GGGAGUUCUACAGUCCGACGAUCACUGUAUUUCCCUUUGCCUUUGCUCAUUUCUGGUUCCUUGAGGACAAAUGAAUGUUCUGGGGGGGCUUCAUCACUUUUCCCUUUUGGUGCUAGGUCUGCCACAGAAGAAUCAUUCUUUGACAACAGAGGAUUGAGCAUCA
B4: chr9:135554620:135554621:+_ENSG00000125484_ENST00000372146|hu_hu|motif|central (ssRNA)
RNA: GGGAGUUCUACAGUCCGACGAUCUUCUUGUAAAAAUUGAGGGAUAUGUUUAUCUUUUAAAAUCUUCCAGCGUACGGGGUCGGUUAAAUCUACCUGCUUAAAAAGGUUUUGAACUGAAGAUUCCAGGAGCUGAGCAGCUGCCUCCAACAGAGGAUUGAGCAUCA
B5: chr2:216983849:216983850:+_ENSG00000079246_ENST00000392132|hu_hu|FALSE|FALSE (ssRNA)
RNA: GGGAGUUCUACAGUCCGACGAUCCUUGCCAAGUGAGAAAGGCAAGAAGAAUUGCAGGGAGAUGUCACAUUUCUUCAAGCUAUGAAUUAUAAUAUCCAGCUGACUUUUGCUGAAUCGGCUGCUGAGGUCAGUGAAUAUUUCAAUCAACAGAGGAUUGAGCAUCA
B6: chr1:163116471:163116472:-_ENSG00000143248_ENST00000313961|hu_hu|FALSE|FALSE (ssRNA)
RNA: GGGAGUUCUACAGUCCGACGAUCUAUAAAAUACUUCAUUGUUGAUCUUAGGUCAUUGAUUUAAAACAGAAUUUGGUGACUAUGGGCAGGUGGAGGGGGCCAGUGAGGAAGGUAUAAAAGAGAAAUCUUUAUGAAUUGUGUUCACAACAGAGGAUUGAGCAUCA
B7: chr3:10015032:10015033:+_ENSMUSG00000027533_ENSMUST00000029046|mus_mus|mus_mus_mus_hu_True|58_68 (ssRNA)
RNA: GGGAGUUCUACAGUCCGACGAUCGUUUUUACCAUCACAAGUGAUGAUACAAUCUGGCUUGGCCAUUGCAGCCAUCUUCCUAAGAGCUAUUCCCACUCCUAGCUCCUUCAUGUAUUCAUCAAAGCCUUUGCUGUCCACCAGGCGCAACAGAGGAUUGAGCAUCA
B8: 204354679_204354799_599_3pUTR_ENSG00000173166_ENST00000319170|human|control|control (ssRNA)
RNA: GGGAGUUCUACAGUCCGACGAUCUUCUGAGUAGCUUUCGUUUCUGUGAUUUGACGCUUACUGUUUCCUGAACCAAUGCUGCUGAGCUCCUGCUCUAUAGAGCAAAGAUCAGCCAUCAAGGCAUCCAGAUCCACAGUCUCUCCCCAACAGAGGAUUGAGCAUCA
B9: chr11:2981123:2981124:-_ENSG00000205531_ENST00000380542|hu_mus|motif|central (ssRNA)
RNA: GGGAGUUCUACAGUCCGACGAUCCUUGUACGUUUUCGUCAGGACAGGAUUGGUGAAGUAGUCGUUGGGUUCAAAGUGAAACUCGGGCACAAAAGACAUAGGUUGUCCAGGGUCUGAAAACUUCACUUUAAUAUCCUGCAGAUGCAACAGAGGAUUGAGCAUCA
B10: chr14:62203736:62203737:+_ENSG00000100644_ENST00000337138|hu_hu|motif|central (ssRNA)
RNA: GGGAGUUCUACAGUCCGACGAUCUCCAGCGGCUGGGGCCAGCAAAGUUAAAGCAUCAGGUUCCUUCUUAAGUUUGUCAAAGAGGCGGCUUGUAUCUUCUGAUUCAACUUUGGUGAAUAGCUGAGUCAUUUUCAUAUCUGAAGACAACAGAGGAUUGAGCAUCA
B11: chr14:78183846:78183847:+_ENSG00000119705_ENST00000557342|hu_hu|hu_hu_hu_mus_False|8_48 (ssRNA)
RNA: GGGAGUUCUACAGUCCGACGAUCUCUCAGAAAUCUUUCUUCAUCAGAUGUUUGAGCUCCGUGCAAAGCCUUUGCUCUUUGAGCUUGAACCUGGACCUAUGGGAGGGAAAGCACUGUCAGAAAAGGUUGUAGUGCAUUUAAAGACAACAGAGGAUUGAGCAUCA
B12: chr2:29169617:29169618:+_ENSG00000163811_ENST00000407426|hu_hu|FALSE|FALSE (ssRNA)
RNA: GGGAGUUCUACAGUCCGACGAUCUAGUUUGACCGGCUUGCUUUGCUGUCUUCAUUCUUCUUCACUUUCAUUUUCAGGAUCUAAAUCAGAAUCUCCAUUUAAUUCUUUUUCACUUGCUGUAUCUCUGUCCUCGCCAUUUUCUUCCAACAGAGGAUUGAGCAUCA
B13: chr17:39846101:39846102:+_ENSG00000173812_ENST00000591776|hu_mus|FALSE|FALSE (ssRNA)
RNA: GGGAGUUCUACAGUCCGACGAUCAUCAUCAGCGAUCCCUUGGACAGUGGUAAGGGUCUUCCUGCCGUUUCUCUGUUGAAUUCUUAUAUGGAUAUAAUCCUCAGUGCCAGCAGGAAGCAGGUCAUCACCCUUACUUGCAUCAGCCAACAGAGGAUUGAGCAUCA
B14: chr5:130458811:130458812:+_ENSMUSG00000066735_ENSMUST00000051758|mus_mus|motif|central (ssRNA)
RNA: GGGAGUUCUACAGUCCGACGAUCUACUUUCUUCACUAUGUAUCAGUCACGAUGAGCUGACAAUUCCUUUCUACACUUCAACGGAACUGUACAGUAAGUUCUGCAGGGGUGGAUCCCAAUGUUUCUACCUUUAUUUACAAAUAUCAACAGAGGAUUGAGCAUCA

The target in the assay is T1, UNK ZnF1-3 (human, UniProt Q9C0B0 31-174).
T1 sequence: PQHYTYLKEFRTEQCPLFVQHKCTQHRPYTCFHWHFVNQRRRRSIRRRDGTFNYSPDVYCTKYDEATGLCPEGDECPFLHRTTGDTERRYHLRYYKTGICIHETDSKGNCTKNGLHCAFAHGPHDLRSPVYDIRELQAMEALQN
Nature of the assay: nsRBNS (natural sequence RNA bind-n-seq); RBNS binding buffer (assumed for nsRBNS): 25 mM Tris pH 7.5, 150 mM KCl, 3 mM MgCl2, 0.01% Triton X-100, 500 ug/ml BSA, 20 U/ml SUPERase-In, 4 C; UNK is unkempt and MSI1 is Musashi-1; names of the RNAs are library labels; protein concentration not given here; high values mean tight binding.
Molecule B1 showed a binding signal of 1.66 enrichment R.

In the case of B2, the binding signal was 1.14 enrichment R.

B3 came in with a binding signal of 0.512 enrichment R.

Molecule B4 gave a binding signal of 1.38 enrichment R.

Take B5: the binding signal is 0.747 enrichment R.

Regarding B6, the binding signal was 1.8 enrichment R.

Molecule B7 had a binding signal of 0.704 enrichment R.

Take B8: the binding signal worked out at 0.588 enrichment R.

B9: the binding signal was determined as 0.817 enrichment R.

As for B10, the binding signal was 1.26 enrichment R.

Regarding B11, the binding signal stood at 1.31 enrichment R.

Turning to B12, the binding signal turned out to be 0.342 enrichment R.

B13 returned a binding signal of 0.362 enrichment R.

In the case of B14, the binding signal was determined as 0.808 enrichment R.
